# According to ChEMBL document CHEMBL4888484, “Replenishing the malaria drug discovery pipeline: Screening and hit evaluation of the MMV Hit Generation Library 1 (HGL1) against asexual blood stage Plasmodium falciparum ,using a nano luciferase reporter read-out” (2022):
# The whole screen tested about 150,000 compounds, of which about 540 (0.36%) showed an effect of 50% or more. The list shows a part of the results.
# System: Plasmodium falciparum
# Test: Primary screen in NF54 nanoGlo assay, in single point, at 2uM, 72h; a lower Z score goes with more inhibition
# Assay type: functional, Erythrocyte
# Details: timepoint 72 hour
SMILES,% Inhibition,Z score
COCCc1nc(CNC(=O)[C@H](C)n2ccnc2C)no1,-6%,0.54
Cc1cc(C2CCC2)nc(-c2cccc(C(=O)NCCc3c[nH]cn3)c2)n1,0%,0.04
Cc1ncn(C[C@H](O)c2ccccc2Br)c(=O)c1C,-11%,1.69
O=S(=O)(c1cccnc1)N1CCN(Cc2cc3n(n2)CCCC3)CC1,-11%,1.38
c1ccc(COc2ccc3c(c2)CC[C@@]2(CCNC2)O3)cc1,-6%,0.86
O=C(NCCc1ccsc1)NC1CCCCCC1,-12%,1.4
Cc1ccc(CN(C(=O)NCc2cccs2)[C@H]2CCc3ccccc32)cc1,1%,-0.19
Cc1ccc(NC(=O)N2CC[C@@H]3COC(=O)N(Cc4ccccc4)[C@@H]3C2)cc1C,-20%,2.67
COc1cccc(C[C@]2(C(=O)O)CCCN(c3cnc4ccccc4n3)C2)c1,14%,-1.9
CN1CCN(C(=O)c2ccc(NCc3ccc(F)cc3)c(S(=O)(=O)Nc3cccc(C(F)(F)F)c3)c2)CC1,1%,-0.17
FC(F)(F)c1ccnc(N2CCc3cncnc3C2)n1,-1%,0.2
CNC[C@H](C)CNS(=O)(=O)c1cc(C)c(C)s1,-4%,0.48
Cc1ccc(N2CC(CO)C2)nc1C#N,-8%,1.39
CC(C)N(C(=O)c1cc(C2CCOCC2)nn1C)[C@H]1CCOC1,-10%,1.52
COc1cccc(CNCCc2cccc3ccccc23)c1OC[C@@H](O)CN1CCOCC1,-8%,0.76
CCc1ncc(C(=O)N2CCc3[nH]c(-c4ccc(F)cc4F)nc3C2)cn1,-6%,1.18
O[C@H]1[C@H](n2cc(-c3ccc(F)cc3)nn2)c2ccccc2C12CCNCC2,-17%,1.96
CCNS(=O)(=O)c1ccc2c(c1)N(Cc1ncc(C(C)C)o1)CC2,-1%,0.14
CCOC(=O)c1noc2ncnc(NCc3ccc4c(c3)OCO4)c12,4%,-0.78
C[C@@H](O)CN(C)C(=O)c1cnc(N(C)C)cn1,-24%,2.61
CCC1=NN(C(=O)c2ccc(OC)cc2)[C@@](O)(c2ccncc2)C1,-8%,1.03
COc1ccnc([C@H](C)NCCn2c(C)nc3ccccc32)c1,-8%,1.01

SMILES,% Inhibition,Z score
O=C(Cc1cccnc1)N1CCOCC1,-10%,1.1
CCCCn1c(C(=O)NCc2ccccc2)cc2cc(NC(=O)CCc3ccccc3)ccc21,1%,-0.08
Cn1cnc2cc(C(=O)N(CCC(F)(F)F)C3CCCCC3)cnc21,3%,-0.43
O=C(c1cc2n(n1)CCCC2)N1CCCC12CCC2,-2%,0.27
CCCN(CC(=O)N(Cc1ccc(F)cc1)Cc1ccc(C)s1)C(=O)Nc1ccccc1,-7%,0.73
CC[C@H]1C=CCN1S(=O)(=O)c1ccc2c(c1)NC(=O)CO2,2%,-0.34
COc1ccc(-c2cnn3c(C)cc(C)nc23)cc1S(=O)(=O)Nc1ccccc1F,-23%,2.21
COC(=O)CC(C)(C)CC(=O)N1C(C)CN(C)CC1C (stereo unspecified),-14%,1.82
Nc1c(C(=O)Nc2ccccn2)nnc2ncnn12,-46%,5.41
CC1OCCN(CCOc2ccc(C(=O)O)cc2Cl)C1C (stereo unspecified),-3%,0.45
CCn1ccnc1[C@H]1OCCC[C@@H]1C(=O)N1CCc2c(F)ccc(F)c21,0%,0.07
Cc1csc(-c2cc(C)nn(CC(=O)N(C3CCCCC3)[C@H]3CCS(=O)(=O)C3)c2=O)n1,-18%,1.99
CN1CC[C@@](Cc2ccccc2)(C(=O)NCCc2ccccn2)C1=O,-2%,0.19
COCCCOc1ccc(C(=O)Nc2ccc(OC(F)F)cc2F)cn1,-51%,5.96
COc1ccc(C(=O)Nc2cc(-c3ccccc3F)nn2-c2ccccc2)cc1,-12%,1.63
O=S1(=O)CCC(NC2CCN(CC(F)(F)F)C2)c2cc(F)c(F)cc21 (stereo unspecified),-9%,1.2
Cc1nc(-c2ccccc2Cl)sc1CNC(=O)COc1ccc2c(c1)OCO2,4%,-0.71
CCc1nc(OCC(=O)NCc2ccccc2)c2c(C)c(C)oc2n1,-4%,0.51
CCN1CCN(C(=O)c2cc3cn(C4CCCC4)cc3s2)CC1,-2%,0.3
CCC1Oc2cc(C(C)NC(C)c3ccccn3)ccc2NC1=O (stereo unspecified),-9%,1.28
COc1ccc([C@H]2C(=O)N(C3CCCCCC3)CC(=O)N2Cc2ccccc2OC)cc1,-9%,1.19
